± gives the standard deviation of the averaged measurements. This is one part of the list.
Tested on: PfAP2-I AP2 domain 3 (GST-tagged)
Experiment: gcPBM binding intensity (ln(normalized median fluorescence intensity)); higher = stronger DNA binding
Outline: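 GST-fused DNA-binding domains of P. falciparum, expressed in E. coli, were applied at about 25 μg on average for 1 h to an Agilent 4 × 180k array of primer-extended double-stranded 36-bp intergenic genomic probes and negative controls. Binding intensity is the highest Masliner-normalised natural-log median intensity across replicate spots of either probe orientation, measured with Alexa488 anti-GST antibody and a 488 nm scan.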

| Sequence | gcPBM binding intensity (ln) |
| --- | --- |
| GAAGATTTATCTTGCACACGCAAAAAAAAAAAAAAA [CACACA_site154] | 8.92 ± 0.085 |
| GAAAATATTTCTATCTGTACTTATTTATATATATAT [XGTACX_site7317] | 9.06 ± 0.099 |
| AAAAATAATCATAGTAGTACAAAAAAAAAAAAAAAA [XGTACX_site3736] | 8.01 ± 0.57 |
| TACGTAAATTCTAATACACACTATAGGATATTCTGC [CACACA_site7248] | 7.63 ± 0.42 |
| TTTATAATATACATAACACACAATTATTATTTCTTA [CACACA_site3624] | 7.58 ± 0.47 |
| AACTTTTAGAAGAACACACACATATAGATTATGACC [CACACA_site6256] | 7.89 ± 0.57 |
| TTTTTTTCCTTATCTATATATAATCAAATTTTCTAC [CACACA_negctrl_site867] | 7.75 ± 0.61 |
| TTATAACAAATATAGAGTACTAAAATTTTACGTTAT [XGTACX_site1410] | 7.66 ± 0.48 |
| TCGAACATTAACATAACACACATATATATATATATA [CACACA_site2900] | 9.27 ± 0.29 |
| AAGGTTATTTATATATGTACTTAATATATATATATG [XGTACX_site886] | 7.7 ± 0.23 |
| TGCTATAATTTATATACACACAAATATATACTCATA [CACACA_site6111] | 7.7 ± 0.45 |
| TATAACTATTTATAATGTACTCATGTATAATTATAT [XGTACX_site7913] | 7.67 ± 0.22 |
| TTAATTTATTTATGCACACATATATAATTACACATA [CACACA_site4544] | 9.9 ± 0.43 |
| TTTATATATTATATAAATATTATTATACTTTAAATA [TGCATGCA_negctrl_site236] | 7.34 ± 0.19 |
| TTTTATCGATATATCTGTACATATTACTTATAATAA [XGTACX_site57] | 7.93 ± 0.44 |
| ATGCTTTTGTCATGTGCACACACGTATATATTATAT [CACACA_site4163] | 9.82 ± 0.3 |
| ACATGTATTTATAAGAGTACATATGTGTGCATGTTT [XGTACX_site7946] | 8.59 ± 0.18 |
| AAAAAAAAAAAAAGATGTACATATATTTTTATTATA [XGTACX_site654] | 7.71 ± 0.33 |
| AAGGATATAAAAAAACGTACGTACGATAATATAATT [XGTACX_site1292] | 8.07 ± 0.52 |
| AACCATTCTTCTAATTGTACATTGAAAAATCATGAT [XGTACX_site3854] | 7.85 ± 0.51 |
| AGTATTTTAATTTCAGTGCATTTTATTCTATAATTA | 9.47 ± 0.29 |
| AAAAAAAAAAAAAATGCATGTGCGTAAATAATAATA [TGCATGCA_site793] | 8.78 ± 0.47 |

| Sequence | gcPBM binding intensity (ln) |
| --- | --- |
| ATATATATCTATATTTGTACATATTACATTCAAGTT [XGTACX_site1749] | 7.96 ± 0.64 |
| TTTAGGAAAGGCGGCACACATTTATATATTTATTTA [CACACA_site5931] | 7.5 ± 0.49 |
| AAGTTTTCTTACAGATGTACTTTTTAAAAATAAACT [XGTACX_site6632] | 7.95 ± 0.52 |
| TTTTTTTTTTCTTGTTGTACTTTTAATAATTCATAT [XGTACX_site4704] | 8.11 ± 0.42 |
| TTATTAAAAAAAATATGTACTCACAATATAATATAT [XGTACX_site3738] | 7.84 ± 0.18 |
| GAAATTTTTAAAAAGGTGCTTTTAACAAAAATTATT [GTGCAC_site9687] | 9.88 ± 0.35 |
| ACCATCCTTAATACTTATTTTTTCACAATTAAGTAA [GTGCAC_negctrl_site269] | 7.96 ± 0.51 |
| TATATATATATAACATGTACATAAAATACATTTATA [XGTACX_site7370] | 9.07 ± 0.099 |
| TTAGCAACTATTACTACACACATTTGTATATAATTT [CACACA_site1591] | 7.76 ± 0.61 |
| CAACACTTATTGAAACGTACGCATATAGTTTCTTTT [XGTACX_site8960] | 7.57 ± 0.57 |
| AAAGGATATGGACACACACACACATATATATATATA [CACACA_site8686] | 9.27 ± 0.21 |
| TTTATTTATATTTATACACACAAACATAATACTACT [CACACA_site7039] | 7.92 ± 0.42 |
| ATATATTTTTTAAACACACACATAAATATTTGTGTA [CACACA_site2879] | 7.84 ± 0.49 |
| TATTTTTCTTTATTGGTACACACGAAAAAAAAATTG [CACACA_site3054] | 7.93 ± 0.31 |
| AAAATCCAGTTTTCAAAATTGAACAAAAAAAAAATA [GTGCAC_negctrl_site542] | 7.5 ± 0.56 |
| TCTAAGTATAAAGACACACAGAATAAAAAAAAATAT [CACACA_site2367] | 7.99 ± 0.81 |
| AAAATATATATGTATGTTTATATGTTTATATATATT [XGTACX_negctrl_site337] | 7.45 ± 0.59 |
| AAAAAAAAATTTAAGTGTACATTCCATTTTAGTTTA [XGTACX_site5286] | 7.33 ± 0.42 |
| AAGAAGCATAAATGTACACACATATTTATATATCAA [CACACA_site6743] | 7.84 ± 0.39 |
| TATTTAATATATTTATGTACATATTTATTTATTATT [XGTACX_site524] | 7.6 ± 0.18 |
| TAATATACATAATAATGTACATATTTTCATATATAC [XGTACX_site6913] | 7.67 ± 0.26 |
| CACAAAATAAATTAAACACACAACATCAGATATGTA [CACACA_site6529] | 7.37 ± 0.43 |

Source: the supplement of paper PMC11417369
